# From PubChem BioAssay AID686979 (National Center for Advancing Translational Sciences (NCATS), 2013)
# Screen size: about 420,000 compounds; about 50,000 (12%) were called active. Inconclusive means that the source gave no clear call. Such entries were picked first, then a sample of the others. The call rests on the fitted dose curve; in most records, active means well fitted inhibition curve with a large enough effect; inconclusive means small, poorly fitted or top-dose-only effect; inactive means flat fitted curve, though single readings scatter. No potency is given beside an inconclusive call; the fits are too rough.
# Assay: qHTS for Inhibitors of human tyrosyl-DNA phosphodiesterase 1 (TDP1): qHTS in cells in presence of CPT; further: nearly all actives have a fitted effect of over 55% in size
# Settings: chicken DT40 Tdp1-/-;hTDP1 cells + 20 nM CPT, ATP luminescence, 48 h; activity change, negative = growth inhibition: at 46.2 µM (top of the series) unless noted
# Summary of the method: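 Chicken DT40 Tdp1-/- cells complemented with human TDP1, 400 cells/well, exposed to compounds plus 20 nM camptothecin for at least 48 h at 37 C; viability read as ATP content by CellTiter-Glo luminescence.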
# On the % scale 0 is the no-effect control and ±100 the full control effect; potency means the concentration at half of the fitted maximal effect; tags describe the fitted curve by direction and shape.
Compound,"activity change, negative = growth inhibition",Potency
Cc1c(NC(=O)c2cnc(Cl)c(Cl)c2)c(=O)n(-c2ccccc2)n1C,inactive: 6.48%,
O=C(NC(=S)NNC(=O)c1cnccn1)c1ccc(Cl)cc1,,active: 8.2 µM
c1ccc(-c2cccc(-c3ccccc3)n2)cc1,,"inconclusive [inhibitor, single point]"
CC(C)(C)C1CCC2(CC1)NC(=S)N(c1ccccc1)N2 (configuration not stated),,"inconclusive [inhibitor, single point]"
Cc1oc2c(CN3CCCCC3C)c(O)ccc2c(=O)c1-c1ccccc1 (configuration not stated),,"inconclusive [inhibitor, partial curve]"
CCOC(=O)CSc1nnc2n(C3CCCCC3)c(=O)c3c4c(sc3n12)CCCC4,,"inconclusive [inhibitor, single point]"
CCOC(=O)C1CCN(C(=O)CCCNC(=O)Cn2cnc3sc(C)c(C)c3c2=O)CC1,inactive: 4.46%,
Cc1cccc(N2CCN(C(c3ccccc3)c3nnc(-c4ccccc4Cl)o3)CC2)c1C (configuration not stated),,active: 20.6 µM
CCn1c(SCC(=O)NNC(=O)c2ccc(OC)cc2)nnc1-c1cccnc1,inactive: 14%,
O=C(O)c1ccc(OCCCCCCOC2CCCCO2)cc1 (configuration not stated),,"inconclusive [inhibitor, single point]"
CCOC(=O)C1Nc2ccc(C(F)(F)F)cc2C2C=CCC12 (configuration not stated),,"inconclusive [inhibitor, single point]"
Cc1c(N2C(=O)/C(=C/C3CC=CCC3)SC2=S)c(=O)n(-c2ccccc2)n1C (configuration not stated),,active: 18.4 µM
COc1ccc(CNC2CCSc3ccccc32)cc1OC (configuration not stated),,"inconclusive [inhibitor, single point]"
C=CC[n+]1ccc(/C=C2\C=Cc3cc(C)ccc3N2CC)c2ccccc21,,active: 0.291 µM
C=C(CN(C)C)C(=O)c1ccc(C)cc1C,,active: 0.517 µM
C=CCC(C#Cc1ccc(C)cc1)N(CC)CC (configuration not stated),inactive: -26.5%,
CCOc1ccccc1NC(=O)CCc1nnc2ccc(N3CCC4(CC3)OCCO4)nn12,inactive: 2.9%,
O=C(O)c1cc(NN=Nc2ccc(Br)cc2)cc([N+](=O)[O-])c1,inactive: -15.1%,
Fc1ccccc1N1CCN(c2ncc3c(n2)CCN(Cc2cc(Br)cs2)C3)CC1,,"inconclusive [inhibitor, partial curve]"
CCOc1ccccc1NC(=O)C(c1ccccc1)N1Cc2ccccc2C1=O (configuration not stated),,"inconclusive [inhibitor, single point]"
COC(=O)N1c2ccccc2C=Cc2ccccc21,,"inconclusive [inhibitor, single point]"
CNc1cccc(-c2ccccc2C(C)=O)n1,inactive: -21.8%,
